Values after ≈ are worked out from the molar mass of the structure shown.

One data set is described as follows: physchem. The following applies: octan-1-ol/water, pH 7.4.
One may read the logD as lipophilicity at a set pH, counting ionised and neutral species. With `C[C@@H]1CN(Cc2ccc(F)cc2)CCN1C(=O)COc1ccc(Cl)cc1NC(N)=O` [BX 471 FREE BASE], the logD was 1.91.

Take `CCNC(=O)C[C@@H]1N=C(c2ccc(Cl)cc2)c2cc(OC)ccc2-n2c(C)nnc21` [MOLIBRESIB]: the logD was 2.46.

Compound `COC(=O)C1=C(C)NC(C)=C(C(=O)OC)C1c1ccccc1[N+](=O)[O-]` [NIFEDIPINE] gave a pH-dependent lipophilicity (logD) of 3.29.

Staying with this data set, now noted: octan-1-ol/water, pH 7.4, LogD7.4.
In the case of `Cc1cc(C)cc(-c2[nH]c3ccccc3c2CCNCCCCc2ccncc2)c1`, the logD came out at 3.3.

The compound `Nc1ncc(-c2cnn(C3CCOCC3)c2)cc1-c1nc2ccccc2o1` came in with a logD of 4.

On to `Cc1onc(C(N)=O)c1C(=O)Nc1nccs1`, for which the logD was 1.63.

In the case of `O=C(O)c1cc2cc([N+](=O)[O-])ccc2n1Cc1ccc(Cl)c(Cl)c1`, the logD came to 1.79.

In turn, `N#Cc1cnn(-c2ccccc2)c1NC(=O)c1ccccc1F` had a logD of 1.7.

Consider `CCn1c2ccccc2c2cc(NC(=O)C(C)C)ccc21`, for which the logD was 4.2.

`O=C(CN1CCOCC1)Nc1ccc(-c2cccc3c(=O)cc(N4CCOCC4)oc23)cc1-c1ccccc1`: the logD was 3.4.

Take `c1ccc(N2CC3COc4ccccc4C3=N2)cc1` (centres undefined): the pH-dependent lipophilicity (logD) turned out to be 4.28.

In turn, `CCOc1ccc2oc(C(=O)NC(CCSC)c3nc4ncccc4[nH]3)c(C)c2c1` (centres undefined) came in with a logD of 4.23.

`CCOC(=O)c1ccc(OCCC2CCN(c3ccc(C)nn3)CC2)nc1` came in with a logD of 3.76.

As for `O=C(N[C@@H](Cc1ccc(OCCCNc2ccccn2)cc1)C(=O)O)c1c(Cl)cccc1Cl`, the logD was -0.22.

As to `CN1CCN(S(=O)(=O)c2ccc(-c3cnc(N)c(C(=O)Nc4cnccc4CN4CCCC4)n3)cc2)CC1`, the logD was 3.28.

Turning to `Nc1ccc(C(=O)Nc2cccc(-c3nc(N4CCOCC4)c4oc5ncccc5c4n3)c2)cn1`, the logD was found to be 3.44.

Take `COCCC(Oc1ncnc2c1cnn2-c1ccccc1C(F)(F)F)C(=O)Nc1ccc(C)cn1` (centres undefined): the logD was determined as 3.5.

With `O=C(NC1Cc2ccccc2N(C[C@@H](O)CO)C1=O)c1cc2cc(Cl)ccc2[nH]1` (some centres undefined), the logD was found to be 3.4.

On to `CN(C)C(=O)[C@H](Cc1ccccc1)NC(=O)c1cc2ccccc2[nH]1`, for which the logD was determined as 3.4.

With `O=C(CSc1ccncc1)Nc1ccc(C(=O)c2ccccc2)cc1`, the logD came out at 3.6.

As for `N#Cc1c(C(=O)O)n(Cc2ccc(Cl)c(Cl)c2)c2ccccc12`, the logD was determined as 1.26.

Consider `O=C(NC1Cc2ccccc2N(CC(CO)CO)C1=O)c1cc2cc(Cl)sc2[nH]1` (centres undefined), for which the logD came to 3.56.

On to `CC(C)n1c2ccccc2c2cc(NC(=O)N3CCOCC3)ccc21`, for which the logD was 3.55.

For `NC(=O)c1sc(-c2ccc(Cl)cc2)cc1N`, the logD came to 3.3.

In turn, `COc1cc2c(cc1OC)C(=O)C(CC1CCN(Cc3ccccc3)CC1)C2` (centres undefined) [DONEPEZIL] yielded a logD of 2.41.

Take `O=C(Nc1ccccc1)c1ccccc1` [N-PHENYLBENZAMIDE]: the logD amounted to 2.8.

In the case of `CS(=O)(=O)c1ccc([C@@H](C[C@H]2CCC(=O)C2)C(=O)Nc2cnccn2)cc1Cl` [PIRAGLIATIN], the logD was 1.39.

The compound `Nc1nc2ccc(OC(F)(F)F)cc2s1` [RILUZOLE] came in with a logD of 3.34.

A short description of the next data set: physchem. The conditions noted are these: pH 7.4 buffer.
Usually thermodynamic solubility stands for the concentration in solution at equilibrium with solid. The compound `COc1cc2cc(-c3ccc(O)cc3O)nc(C)c2cc1OC` came in with a thermodynamic solubility of 1.2 µM (≈ 0.374 µg/mL).

For the compound `Cc1ccc(CO)cc1N(c1ccnc(Nc2cc(N3CCOCC3)cc(N3CCOCC3)c2)n1)C(C)C`, the thermodynamic solubility is 32.4 µM (≈ 16.8 µg/mL).

Take `COC[C@H](C)Oc1cc(Oc2ccc(Cl)cc2)cc(C(=O)Nc2ccc(C(=O)O)cn2)c1`: the solubility (thermodynamic) worked out at 776 µM (≈ 355 µg/mL).

In turn, `CN(C(=O)Cc1ccc(S(=O)(=O)N(C)C)cc1)C1CCN(CCC(c2ccccc2)c2ccccc2)CC1` returned a solubility (thermodynamic) of 490 µM (≈ 261 µg/mL).

In the case of `COc1cc(N2CC3CN(CCO)CC(C2)O3)ccc1Nc1ncc(Cl)c(-c2cnc3ccccn23)n1`, the thermodynamic solubility turned out to be 5.1 µM (≈ 2.66 µg/mL).

Consider `CCOC(=O)c1ccc(OCC2CCN(c3ccc(C)nn3)C2)cc1` (centres undefined), for which the solubility (thermodynamic) was determined as 170 µM (≈ 58 µg/mL).

Turning to `Nc1nc(Cl)nc(NCc2ccccc2)n1`, the solubility (thermodynamic) is 28.2 µM (≈ 6.65 µg/mL).

`CCN(C(=O)Cc1ccc(S(C)(=O)=O)cc1)C1CCN(CCC(c2ccccc2)c2ccc(NC(=O)Cc3ccccc3)cc2)CC1` (centres undefined) yielded a solubility (thermodynamic) of 2.8 µM (≈ 1.83 µg/mL).

For the compound `CCN(C(=O)Cc1ccc(S(C)(=O)=O)cc1)C1CCN(Cc2ccc(C(F)(F)F)cc2)CC1`, the solubility (thermodynamic) stood at 8.9 µM (≈ 4.29 µg/mL).

`CN(C(=O)Cc1ccc(-n2cnnn2)cc1)C1CCN(Cc2nc3cc(F)ccc3s2)CC1` gave a thermodynamic solubility of 1.5 µM (≈ 0.698 µg/mL).

Compound `O=C(N[C@@H](Cc1ccc(OCCc2ccc3c(n2)NCCO3)cc1)C(=O)O)c1c(Cl)cccc1Cl` registered a solubility (thermodynamic) of 1410 µM (≈ 729 µg/mL).

Compound `O=C(Nc1ccc(N2CCOCC2)nc1)c1nnc(Nc2cccc(OCc3cccnc3)c2)o1` came in with a solubility (thermodynamic) of 4.6 µM (≈ 2.18 µg/mL).

`O=C(Nc1ccc(Cl)c(Cl)c1)N1CCN(C[C@@H]2CCCN(Cc3ccccc3)C2)CC1` came in with a solubility (thermodynamic) of 42.7 µM (≈ 19.7 µg/mL).

`Cc1cc(CNc2nccc(Nc3cc(CCc4ccccc4)[nH]n3)n2)on1` showed a thermodynamic solubility of 26.9 µM (≈ 10.1 µg/mL).

`CC(C)(C)NC(=O)Nc1ccc(-c2c(N)nc(N)nc2COCc2ccccc2)cc1`: the solubility (thermodynamic) was found to be 427 µM (≈ 179 µg/mL).

Consider `CCCSc1ncccc1C(=O)NC1CCC(F)(F)CC1`, for which the solubility (thermodynamic) was 60.3 µM (≈ 19 µg/mL).

Compound `Cc1c(C(=O)NC2C3CC4CC(C3)CC2C4)cnn1-c1ccc(C(=O)O)cc1` (centres undefined) gave a thermodynamic solubility of 1200 µM (≈ 456 µg/mL).

In turn, `O=C(O)c1ccc(-n2ncc(C(=O)NC3C4CC5CC(C4)CC3C5)c2C(F)(F)F)cc1` (centres undefined) registered a solubility (thermodynamic) of 1260 µM (≈ 546 µg/mL).

On to `O=S(=O)(Nc1ncns1)c1cc(F)c(Oc2ccc(Cl)cc2-c2ccnn2C2CNC2)cc1F`, for which the solubility (thermodynamic) was determined as 25.1 µM (≈ 13.2 µg/mL).

In the case of `OC1(c2ccc(F)cc2)CCN(c2ccc3nnc(C(F)(F)F)n3n2)CC1`, the solubility (thermodynamic) came out at 1.6 µM (≈ 0.61 µg/mL).

`COC1CCN(C(=O)C2CCN(CCc3c(-c4cc(C)cc(C)c4)[nH]c4sc(C(C)(C)C(=O)N5C6CCC5CC6)cc34)CC2)CC1` returned a thermodynamic solubility of 29.5 µM (≈ 19 µg/mL).

Regarding `CCC(CC)CNC(=O)c1ccc2c(c1)c(Cc1ccc(C(=O)NS(=O)(=O)c3ccccc3C)cc1OC)cn2C`, the solubility (thermodynamic) was found to be 95.5 µM (≈ 55 µg/mL).

`N=C(N)c1cc2c(/C=C/c3ccc4c(c3)OCO4)cccc2s1` had a thermodynamic solubility of 3.6 µM (≈ 1.16 µg/mL).

Compound `COc1cc(C(=O)NS(=O)(=O)c2ccccc2C)ccc1Cc1c[nH]c2ccc(NC(=O)CC3CCCC3)cc12` returned a thermodynamic solubility of 2.8 µM (≈ 1.57 µg/mL).

`C[C@H](CO)Nc1nc(SCc2cccc(F)c2F)nc2[nH]c(=O)c(=O)[nH]c12` came in with a thermodynamic solubility of 61.7 µM (≈ 24.4 µg/mL).

As for `Cc1ncc(-c2ccnc(Nc3ccc(N4CCN(C(=O)CO)CC4)cc3)n2)n1C(C)C`, the thermodynamic solubility is 158 µM (≈ 69 µg/mL).

Take `O=C(CCc1ccccc1)c1ccccc1`: the thermodynamic solubility was 9.8 µM (≈ 2.06 µg/mL).

As to `N#Cc1ccc(-c2ccc(S(=O)(=O)Nc3cccc(N)n3)cc2)cc1`, the thermodynamic solubility was 1.3 µM (≈ 0.456 µg/mL).

For the compound `Cc1cc(CNc2ncc(Br)c(Nc3cc(C4CC4)[nH]n3)n2)on1`, the thermodynamic solubility amounted to 43.7 µM (≈ 17.1 µg/mL).

In turn, `COCCS(=O)(=O)N1CCN(c2ccc(Nc3nccc(-c4cnc(C)n4C(C)C)n3)cc2)CC1` displayed a thermodynamic solubility of 14.1 µM (≈ 7.04 µg/mL).

As for `Cc1ncc(-c2ccnc(Nc3ccc(S(=O)(=O)CC4CCCO4)cc3)n2)n1C(C)C` (centres undefined), the thermodynamic solubility was 69.2 µM (≈ 30.6 µg/mL).

On to `NCc1ccc(NC(=O)c2cc(Nc3ncccn3)c3cc(/C(N)=N/O)ccc3c2)cc1`, for which the solubility (thermodynamic) turned out to be 28.2 µM (≈ 12.1 µg/mL).

Compound `NC(=O)c1ccccc1OCc1ccccc1` came in with a thermodynamic solubility of 126 µM (≈ 28.6 µg/mL).

In the case of `Cc1nc2ccccn2c1-c1ccnc(Nc2cccc(Cl)c2)n1`, the solubility (thermodynamic) amounted to 6.5 µM (≈ 2.18 µg/mL).

`CC(C)n1c(=O)n(C)c(=O)c2cn(Cc3cccc4ccccc34)cc21` registered a solubility (thermodynamic) of 23.4 µM (≈ 8.13 µg/mL).

In turn, `COC(=O)C1=C(C)NC(C)=C(C(=O)OC)C1c1ccccc1[N+](=O)[O-]` [NIFEDIPINE] showed a solubility (thermodynamic) of 20.9 µM (≈ 7.24 µg/mL).

The values above are taken from ChEMBL document CHEMBL3301361, “Experimental in vitro DMPK and physicochemical data on a set of publicly disclosed compounds”.
